The supplement of paper PMC3334620
Over roughly 33,000 sequences, “E-score (-0.5 to 0.5)” has its median near -0.054; the highest 2% begin near 0.39. This is one part of the list.

target: Ylr278c (UniProt Q05854); experiment: PBM E-score (8-mer binding enrichment) (E-score (-0.5 to 0.5)); higher = stronger / more preferred TF binding; most listed sequences are background and not binding sites; details: protein concentration: 200 nM; construct: GST-DNA-binding domain
Method in brief: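 PURExpress in vitro transcription/translation supplied GST-tagged yeast transcription factors, either full-length or DNA-binding domain. Applied at about 100-200 nM to universal all-10-mer Agilent arrays double-stranded by primer extension, the bound protein was detected with fluorescent anti-GST. E-scores, modified Wilcoxon-Mann-Whitney statistics, were given by the Universal PBM Analysis Suite to ungapped eight-base words pooled with their reverse complements after masliner normalisation.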

Row | Sequence | PBM E-score
1 | CACGAAGG | -0.0763
2 | CTGCATGA | -0.288
3 | AACGACGT | -0.164
4 | CCCGGCGA | 0.326
5 | CCCCTAAC | -0.141
6 | CATCACAG | -0.108
7 | GCAAACGA | -0.14
8 | ACGCGAGA | -0.171
9 | CTATCTTC | 0.0122
10 | GAGCAAAC | 0.0239
11 | GAAGCGGA | 0.375
12 | AGGACTAT | -0.152
13 | AGAGAACA | -0.0886
14 | ACATAGCC | 0.106
15 | ATTCCCGC | 0.348
16 | CCCGCTGA | 0.115
17 | AGGAGCCG | -0.0181
18 | CCCTATTC | 0.19
19 | AGGCAGAG | -0.316
20 | AACTATTC | 0.0951
21 | ACTCCACC | -0.0671
22 | GGTGGTCA | 0.0226
23 | TGTGGAAA | -0.0101
24 | ATCTTTTC | -0.0178
25 | CACCTCGC | 0.0879

Row | Sequence | PBM E-score
26 | AGTTATTG | -0.0584
27 | CAAGCGTA | -0.415
28 | AAGCCCTA | -0.116
29 | CTTAACAC | -0.212
30 | CCCTGCAA | -0.106
31 | ACGGGAGT | 0.223
32 | CACATTCC | 0.128
33 | CCCATAGG | -0.0984
34 | GTATCAAA | -0.0672
35 | CCTTGGCA | -0.186
36 | GTTATCGA | 0.113
37 | ACTTAAAA | 0.0514
38 | ATGCGCGC | 0.258
39 | ACGGTTGC | -0.128
40 | AAGGGGCC | -0.0231
41 | CTGGCCAA | -0.0724
42 | CGGCTATC | 0.312
43 | AGGTAGAG | -0.168
44 | CGGCAGTA | 0.22
45 | ACAGCGAC | -0.184
46 | ATTCCCGG | 0.411
47 | TTAAGAAA | -0.224
48 | AAAAATAA | -0.035
49 | CACGTGGG | -0.147
50 | AGAAAATA | -0.0326

Row | Sequence | PBM E-score
51 | CCCGGTCC | 0.336
52 | GCTCAAGC | -0.0197
53 | AAGCTTGC | -0.176
54 | GGACGCTA | -0.163
55 | CCGTAGAA | -0.00631
56 | ACCGCGAC | 0.0815
57 | GGCCCATA | -0.0549
58 | CTAGATAG | -0.28
59 | ATACGGAA | 0.345
60 | ACCTGCCT | -0.0457
61 | CCGATCGA | 0.226
62 | AGTCACGC | -0.062
63 | TCCCAGGA | -0.166
64 | GATAGAAA | 0.00508
65 | AAATCTTC | 0.0924
66 | GAATTCCA | 0.194
67 | ACTTGGGC | -0.0315
68 | CCTAAGAG | -0.167
69 | AGAGAACC | -0.0147
70 | TGGCCCCA | -0.13
71 | ATCTTGCA | -0.00704
72 | CCGGACAC | 0.371
73 | GAAGCACC | -0.0183
74 | CCGTGCAG | 0.181
75 | GACTACTC | 0.0709

Row | Sequence | PBM E-score
76 | ACGTGTAC | -0.218
77 | CTCGCCGA | 0.248
78 | AGTATAAT | 0.114
79 | ATCGGATC | 0.33
80 | AGGCGTTA | -0.108
81 | CAATCCAA | -0.164
82 | CAAAGATA | -0.143
83 | TACTACCA | -0.216
84 | CGTCCAGA | -0.137
85 | GCATATCC | 0.0103
86 | CGAATTCG | 0.211
87 | GAACGCGA | -0.0235
88 | AGAGCAGA | -0.198
89 | ATATGTAC | 0.0645
90 | CGCGCACC | 0.136
91 | ACCGTATA | -0.206
92 | AGACGGAT | 0.176
93 | ATAGAAAA | -0.142
94 | AAGCCGCT | 0.182
95 | CAGAGGCA | -0.153
96 | AGATACTG | -0.153
97 | ACTCTCAC | -0.113
98 | CATAATAA | -0.192
99 | AATTGCGT | 0.0881
100 | CCTGAATA | -0.0137

Row | Sequence | PBM E-score
101 | CACACAGC | -0.139
102 | AATATTGC | 0.0838
103 | AATGACGA | -0.117
104 | CCTTGTCA | -0.243
105 | AGCGCTCA | -0.101
106 | AAATGTGA | -0.146
107 | ACACGGTC | -0.0359
108 | AGTTACAG | -0.0524
109 | CACGATAG | -0.119
110 | CCAAATGA | -0.0965
111 | AGCTGGGC | -0.156
112 | GCAGTCAA | -0.296
113 | CGAACGCC | 0.306
114 | AGCGGAAT | 0.385
115 | GATCATTA | 0.0713
116 | AAATTCGA | -0.0592
117 | GGCATTGA | 0.16
118 | AGATCGAC | -0.0891
119 | TCCACACA | -0.0159
120 | CTAAAAAG | -0.129
121 | CAGTGTCG | -0.0738
122 | GCCAAGGC | -0.19
123 | AATATTTA | -0.00225
124 | ATGCACTG | -0.236
125 | ATTGGGAG | 0.00712

Row | Sequence | PBM E-score
126 | ACCAAAGA | -0.0945
127 | TAGCAATA | -0.0362
128 | CACTACTC | 0.0536
129 | AGAACAAT | -0.0683
130 | CGTATAGC | 0.161
131 | GTCGTAAA | -0.0945
132 | CCAACACC | 0.0617
133 | AAAGTGTG | -0.164
134 | AAAACTCC | 0.386
135 | CGCCTTCA | -0.106
136 | AACTGGAA | -0.107
137 | CCGCTTGC | 0.217
138 | CATCAATC | -0.16
139 | AGTGTGTG | -0.269
140 | GAGGAACC | -0.0197
141 | AATATGGA | -0.209
142 | ATACAGCC | -0.165
143 | CACCCCGC | 0.28
144 | ACGCACCT | -0.039
145 | CTTGTGAC | -0.181
146 | ATGGACCG | 0.0553
147 | CCATACCA | -0.0905
148 | CATGGTTC | 0.0217
149 | ATTGAGGC | 0.0511
150 | AGCTCAGA | -0.132

Row | Sequence | PBM E-score
151 | CAGGTTCC | 0.0369
152 | GGTCTTAC | -0.0198
153 | ACTTGGCC | -0.0011
154 | GCGGTGTA | 0.132
155 | AGATACCT | -0.0813
156 | CTAGAAAG | -0.178
157 | GGGCAATA | 0.107
158 | ATATCAGC | -0.129
159 | CGACTTTA | -0.0556
160 | TGAATGAA | -0.101
161 | AAAGACGG | 0.132
162 | AACGTGTA | -0.182
163 | CGGGCAGA | 0.252
164 | CACTCAAA | -0.13
165 | GAACAACA | -0.0739
166 | AGAAGACG | -0.0192
167 | CAGTGCGG | 0.257
168 | CTTTCTAC | -0.141
169 | CTAAACTC | 0.133
170 | TCATTACA | -0.107
171 | ATTACATA | -0.25
172 | AGATTACT | -0.149
